This assay relates to Hb9::GFP-hSOD1^G93A motor neurons.
Setting [1] is: 7.5 μM CPA, best time point (24 or 48 hrs post CPA) and concentration tested.

Like-named read-outs stand apart in the source and are kept apart here.

Consider `C[C@H](CCC(=O)O)[C@H]1CC[C@H]2[C@@H]3C[C@H](O)[C@@H]4C[C@H](O)CC[C@]4(C)[C@H]3CC[C@]12C` [HDCA], for which, under setting [1], the “% rescue of CPA toxicity Cell death” value is given as 10.18% and the “% rescue of CPA toxicity Neurite growth” value was found to be 22.26%.

Turning to `CN([C@@H](Cc1ccc(OS(=O)(=O)c2cccc3cnccc23)cc1)C(=O)N1CCN(c2ccccc2)CC1)S(=O)(=O)c1cccc2cnccc12` [KN-62], under setting [1], the “% rescue of CPA toxicity Cell death” value is reported as 3.13% and the “% rescue of CPA toxicity Neurite growth” value is given as −4.058%.

Regarding `COc1ccc(S(=O)(=O)N(CCO)c2ccccc2CN(C)C/C=C/c2ccc(Cl)cc2)cc1` [KN-93], under setting [1], the “% rescue of CPA toxicity Cell death” value is given as −4.232% and the “% rescue of CPA toxicity Neurite growth” value is on record as −9.04%.

Take `O=C1Cc2c([nH]c3ccc(Br)cc23)-c2ccccc2N1` [Kenpaullone]: under “7.5 μM CPA, FIG. 19A”, the “active concentrations for rescue of motor neurons” value was 5 to 10 µM.

In the case of `C[C@H](CCC(=O)[O-])[C@H]1CC[C@H]2[C@@H]3CC[C@@H]4C[C@H](OS(=O)(=O)[O-])CC[C@]4(C)[C@H]3CC[C@]12C.[Na+].[Na+]` [LCA-3-sulfate disodium salt], under setting [1], the “% rescue of CPA toxicity Cell death” value is given as −2.074% and the “% rescue of CPA toxicity Neurite growth” value is given as 6.127%.

`C[C@H](CCC(=O)O)[C@H]1CC[C@H]2[C@@H]3CC[C@@H]4C[C@H](O)CC[C@]4(C)[C@H]3CC[C@]12C` [LCA]: under setting [1], the “% rescue of CPA toxicity Cell death” value stood at 9.086% and the “% rescue of CPA toxicity Neurite growth” value turned out to be 22.62%.

Regarding `O=S(=O)(c1cccc2c(I)cccc12)N1CCCNCC1` [ML-7], under setting [1], the “% rescue of CPA toxicity Cell death” value is listed as −16.02% and the “% rescue of CPA toxicity Neurite growth” value is recorded as −14.01%.

For `NS(=O)(=O)c1cccc2c1c([N+](=O)[O-])cc1nc(O)c(O)nc12` [NBQX], under setting [1], the “% rescue of CPA toxicity Cell death” value came to 1.545% and the “% rescue of CPA toxicity Neurite growth” value amounted to 5.666%.

Take `CCOC(=O)c1c2c3c(cccc3[nH]c1=O)C(=O)c1ccccc1-2` [NQDI-1]: under setting [1], the “% rescue of CPA toxicity Cell death” value is recorded as 38.84% and the “% rescue of CPA toxicity Neurite growth” value was 14.23%.

`O=C(O)CCCc1ccccc1` [PBA]: under setting [1], the “% rescue of CPA toxicity Cell death” value was −41.56% and the “% rescue of CPA toxicity Neurite growth” value is −11.71%.

With `CCc1cncnc1N1CCN(Cc2nc3ccc(C(F)(F)F)cc3[nH]2)CC1` [PF-4708671], under setting [1], the “% rescue of CPA toxicity Cell death” value was −11.45% and the “% rescue of CPA toxicity Neurite growth” value is −16.5%.

`CCCCCCCCCCCCCC(=O)O[C@@H]1[C@@H](C)[C@@]2(O)[C@@H](C=C(CO)C[C@]3(O)C(=O)C(C)=C[C@@H]23)[C@@H]2C(C)(C)[C@]12OC(C)=O` [PMA]: under setting [1], the “% rescue of CPA toxicity Cell death” value is listed as −5.731% and the “% rescue of CPA toxicity Neurite growth” value worked out at 25.5%.

Take `COS(=O)(=O)[O-].C[n+]1c2ccccc2nc2ccccc21` [Phenazine methosulfate]: under setting [1], the “% rescue of CPA toxicity Cell death” value is −43.4% and the “% rescue of CPA toxicity Neurite growth” value was −18.42%.

For `CCCCCCCCCCCCCC(=O)O[C@@H]1[C@@H](C)[C@@]2(O)[C@@H](C=C(CO)C[C@]3(O)C(=O)C(C)=C[C@@H]23)[C@@H]2C(C)(C)[C@]12OC(C)=O` [Phorbol-12-Myristate-13-Ace], under setting [1], the “% rescue of CPA toxicity Cell death” value was found to be 27.17% and the “% rescue of CPA toxicity Neurite growth” value was 27.55%.

On to `CN(C)C[C@H]1CCn2c(c(C3=C(c4cn(C)c5ccccc45)C(=O)NC3=O)c3ccccc32)C1` [Ro 32-0432], for which, under setting [1], the “% rescue of CPA toxicity Cell death” value was 69.45% and the “% rescue of CPA toxicity Neurite growth” value is recorded as 81.4%.

As for `O=C(/C=C/c1ccccc1)NC(NC(=S)Nc1cccc2cccnc12)C(Cl)(Cl)Cl` (stereo not shown) [SAL], under setting [1], the “% rescue of CPA toxicity Cell death” value is reported as −5.72% and the “% rescue of CPA toxicity Neurite growth” value is −11.87%.

In the case of `C[S+]([O-])c1ccc(-c2nc(-c3ccc(F)cc3)c(-c3ccncc3)[nH]2)cc1` (stereo not shown) [SB203580], the “% rescue of CPA toxicity Cell death” value under setting [1] amounted to 42.39%.

For `CCn1c(-c2nonc2N)nc2cncc(CNC3CCNCC3)c21` [SB747651A], under setting [1], the “% rescue of CPA toxicity Cell death” value is reported as 19.58% and the “% rescue of CPA toxicity Neurite growth” value worked out at 7.742%.

Turning to `CCOC(=O)C1=C(N)Oc2ccc(Cl)cc2C1C(C#N)C(=O)OCC` (stereo not shown) [SC 79], under setting [1], the “% rescue of CPA toxicity Cell death” value is −12.66% and the “% rescue of CPA toxicity Neurite growth” value is given as 24.68%.

Turning to `CC(=O)O[C@@H]1[C@@H](OC(C)=O)[C@@H](O)[C@H](Oc2c(-c3ccc(O)cc3)oc3cc(O)cc(O)c3c2=O)O[C@H]1C` [SL0101], under setting [1], the “% rescue of CPA toxicity Cell death” value is 28.18% and the “% rescue of CPA toxicity Neurite growth” value is reported as 88.94%.

Take `O=S(=O)(N=Cc1c(O)ccc2ccccc12)c1cccs1` [STF-083010]: under setting [1], the “% rescue of CPA toxicity Cell death” value was 9.976% and the “% rescue of CPA toxicity Neurite growth” value is 3.154%.

As for `CC(C)(C)c1ccc(C(=O)Nc2cn3cc(-n4ccnc4)ccc3n2)cc1.Cl.Cl` [TC ASK 10], under setting [1], the “% rescue of CPA toxicity Cell death” value is −1.619% and the “% rescue of CPA toxicity Neurite growth” value is −2.831%.

`C[C@H](CCC(=O)NCCS(=O)(=O)O)[C@H]1CC[C@H]2[C@@H]3[C@H](O)C[C@@H]4C[C@H](O)CC[C@]4(C)[C@H]3CC[C@]12C` [TCDCA]: under setting [1], the “% rescue of CPA toxicity Cell death” value is on record as 14.29% and the “% rescue of CPA toxicity Neurite growth” value was found to be 40.59%.

For the compound `C[C@H](CCC(=O)NCCS(=O)(=O)O)[C@H]1CC[C@H]2[C@@H]3CC[C@@H]4C[C@H](O)CC[C@]4(C)[C@H]3CC[C@]12C` [TLCA], under setting [1], the “% rescue of CPA toxicity Cell death” value worked out at 18.97% and the “% rescue of CPA toxicity Neurite growth” value was 64.49%.

Consider `FC(F)(F)c1ccccc1-n1ccnc1` [TRIM], for which, under setting [1], the “% rescue of CPA toxicity Cell death” value is on record as 13.72% and the “% rescue of CPA toxicity Neurite growth” value was determined as 53.08%.

Turning to `C[C@H](CCC(=O)O)[C@H]1CC[C@H]2[C@@H]3[C@@H](O)C[C@@H]4C[C@H](O)CC[C@]4(C)[C@H]3CC[C@]12C` [UDCA], under setting [1], the “% rescue of CPA toxicity Cell death” value was found to be 18.21% and the “% rescue of CPA toxicity Neurite growth” value is recorded as 47.99%.

Regarding `Cc1cc(C)nc(NS(=O)(=O)c2ccc(NC(=S)NC(=O)COc3ccc(Br)cc3Cl)cc2)n1` [ZCL 278], under setting [1], the “% rescue of CPA toxicity Cell death” value is 3.473% and the “% rescue of CPA toxicity Neurite growth” value was found to be 13.44%.

Turning to `CC(C)C[C@@H](C=O)NC(=O)[C@@H](NS(=O)(=O)c1ccc(F)cc1)C(C)C` [calpain inh. vi], under setting [1], the “% rescue of CPA toxicity Cell death” value was determined as 9.878% and the “% rescue of CPA toxicity Neurite growth” value turned out to be 3.897%.

For `C[C@H](CCC(=O)O)[C@H]1CC[C@H]2[C@@H]3C(=O)C[C@@H]4CC(=O)CC[C@]4(C)[C@H]3CC(=O)[C@]12C` [dehydro-CA], under setting [1], the “% rescue of CPA toxicity Cell death” value is 12.32% and the “% rescue of CPA toxicity Neurite growth” value came out at 53.85%.

Regarding `C[C@H](CC(=O)O)[C@H]1CC[C@H]2[C@@H]3CC[C@@H]4C[C@H](O)CC[C@]4(C)[C@H]3C[C@H](O)[C@]12C` [nor-DCA], under setting [1], the “% rescue of CPA toxicity Cell death” value is 14.57% and the “% rescue of CPA toxicity Neurite growth” value came to 19.56%.

For the compound Guanabenz acetate salt, the “% rescue of CPA toxicity Cell death” value was −5.953% and the “% rescue of CPA toxicity Neurite growth” value is −1.699%.

Take IGF-1: insulin-like growth factor-1: under setting [1], the “% rescue of CPA toxicity Cell death” value turned out to be 4.009% and the “% rescue of CPA toxicity Neurite growth” value came out at 0.4167%.

For the compound Indirubin-3′-monoxime, under setting [1], the “% rescue of CPA toxicity Cell death” value was 1.509% and the “% rescue of CPA toxicity Neurite growth” value is −0.05103%.

Source of the values: patent US12227500B2, “Substituted pyrrolo[2,3-b]pyridines for suppressing toxic endoplasmic reticulum stress” (THE TRUSTEES OF COLUMBIA UNIVERSITY IN THE CITY OF NEW YORK, priority 2018, dated 2025).
